Results are given in words; binding and its absence hold for the method and conditions named. Binding seen in cells or lysates may run through a third protein. Some results given as binding are weak or reduced against the parent protein; the word gives no strength.
T1: human TMC2 (FRET, CHO-K1 cells) (human) (UniProt Q8TDI7)
T1 sequence: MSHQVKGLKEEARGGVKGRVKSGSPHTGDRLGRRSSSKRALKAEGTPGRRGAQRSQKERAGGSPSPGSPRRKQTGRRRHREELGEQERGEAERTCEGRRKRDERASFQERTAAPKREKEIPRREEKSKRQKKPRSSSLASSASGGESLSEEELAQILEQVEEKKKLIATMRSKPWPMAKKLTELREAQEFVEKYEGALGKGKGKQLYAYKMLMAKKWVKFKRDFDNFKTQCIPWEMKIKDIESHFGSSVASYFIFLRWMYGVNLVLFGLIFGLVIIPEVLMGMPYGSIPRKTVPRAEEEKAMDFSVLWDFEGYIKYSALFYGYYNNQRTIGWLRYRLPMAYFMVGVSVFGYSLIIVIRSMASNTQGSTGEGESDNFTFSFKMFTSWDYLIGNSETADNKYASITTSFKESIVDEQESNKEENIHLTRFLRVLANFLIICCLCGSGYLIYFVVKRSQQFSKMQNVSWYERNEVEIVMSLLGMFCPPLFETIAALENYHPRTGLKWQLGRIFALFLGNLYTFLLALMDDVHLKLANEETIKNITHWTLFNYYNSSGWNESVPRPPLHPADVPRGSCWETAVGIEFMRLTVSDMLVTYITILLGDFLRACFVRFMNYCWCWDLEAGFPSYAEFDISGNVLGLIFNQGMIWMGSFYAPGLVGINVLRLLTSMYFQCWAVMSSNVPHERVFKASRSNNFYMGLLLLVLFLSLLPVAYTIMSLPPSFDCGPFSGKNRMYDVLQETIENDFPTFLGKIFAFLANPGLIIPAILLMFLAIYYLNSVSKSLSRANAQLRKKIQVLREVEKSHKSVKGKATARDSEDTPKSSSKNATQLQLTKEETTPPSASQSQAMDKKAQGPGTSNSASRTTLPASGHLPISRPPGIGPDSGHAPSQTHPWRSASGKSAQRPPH

Chains of the proteins cited; added tags and fusions are not shown. Lines headed by an entry give the natural chain unless they say otherwise; changes in a name come on top. A line that says so, or that is headed by a name, gives the form on record, which may keep a tag or linker.
UniProt Q8TDI8: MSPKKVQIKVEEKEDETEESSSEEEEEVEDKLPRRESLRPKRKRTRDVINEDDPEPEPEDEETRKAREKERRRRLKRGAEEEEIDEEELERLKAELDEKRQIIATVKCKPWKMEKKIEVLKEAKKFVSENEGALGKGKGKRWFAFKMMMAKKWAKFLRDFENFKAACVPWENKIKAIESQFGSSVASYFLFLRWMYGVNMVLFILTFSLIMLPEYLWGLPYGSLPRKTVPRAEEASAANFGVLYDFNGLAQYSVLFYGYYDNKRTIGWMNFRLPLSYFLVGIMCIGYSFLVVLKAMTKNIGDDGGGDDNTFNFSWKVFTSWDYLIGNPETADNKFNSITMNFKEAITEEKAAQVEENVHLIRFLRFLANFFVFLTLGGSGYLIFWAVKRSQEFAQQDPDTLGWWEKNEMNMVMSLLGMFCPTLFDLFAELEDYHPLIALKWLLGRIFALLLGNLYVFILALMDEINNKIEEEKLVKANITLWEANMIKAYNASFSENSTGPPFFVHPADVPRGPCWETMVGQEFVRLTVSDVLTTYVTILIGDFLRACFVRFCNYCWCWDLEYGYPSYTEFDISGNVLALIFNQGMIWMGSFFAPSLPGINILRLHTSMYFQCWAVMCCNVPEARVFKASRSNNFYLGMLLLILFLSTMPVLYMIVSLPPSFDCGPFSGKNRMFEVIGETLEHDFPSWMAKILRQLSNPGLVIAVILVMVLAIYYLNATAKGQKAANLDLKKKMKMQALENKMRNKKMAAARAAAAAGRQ
human TMC1 Δ77–86 (FRET, CHO-K1 cells) (Q8TDI8, form named): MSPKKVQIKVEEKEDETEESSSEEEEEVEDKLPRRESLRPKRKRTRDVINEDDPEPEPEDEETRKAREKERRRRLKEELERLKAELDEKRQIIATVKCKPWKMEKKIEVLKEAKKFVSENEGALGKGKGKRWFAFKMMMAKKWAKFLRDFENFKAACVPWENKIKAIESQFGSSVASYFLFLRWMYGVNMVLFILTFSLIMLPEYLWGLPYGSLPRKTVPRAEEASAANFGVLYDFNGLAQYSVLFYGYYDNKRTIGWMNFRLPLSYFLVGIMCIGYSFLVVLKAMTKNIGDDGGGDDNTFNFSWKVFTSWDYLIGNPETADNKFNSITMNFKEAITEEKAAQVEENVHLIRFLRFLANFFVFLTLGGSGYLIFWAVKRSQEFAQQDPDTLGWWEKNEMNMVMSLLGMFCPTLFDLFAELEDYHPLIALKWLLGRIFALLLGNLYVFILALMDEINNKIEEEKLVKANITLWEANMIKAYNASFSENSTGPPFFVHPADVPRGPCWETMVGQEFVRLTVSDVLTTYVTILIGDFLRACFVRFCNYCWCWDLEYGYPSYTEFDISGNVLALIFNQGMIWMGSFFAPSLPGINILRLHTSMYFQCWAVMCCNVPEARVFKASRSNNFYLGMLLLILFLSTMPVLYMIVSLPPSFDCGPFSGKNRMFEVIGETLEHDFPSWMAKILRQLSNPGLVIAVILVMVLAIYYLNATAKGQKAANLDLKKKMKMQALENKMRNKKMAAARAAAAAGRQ


Tests used:
Experiment in all cases: FRET or BRET; acceptor photobleaching FRET in transfected, fixed and immunostained CHO-K1 cells; donor EGFP, acceptor Alexa Fluor 555
[1] = molecular target: human TMC1 Δ77–86 (FRET, CHO-K1 cells) (human) (UniProt Q8TDI8)
[2] = molecular target: T1, human TMC2 (FRET, CHO-K1 cells) (human)
[3] = molecular target: human TMC1 (FRET, CHO-K1 cells) (human) (UniProt Q8TDI8)

Binder	binding [1]	binding [2]	binding [3]
human CIB3 (FRET, CHO-K1 cells) (protein, UniProt Q96Q77 1-187) MGNKQTVFTHEQLEAYQDCTFFTRKEIMRLFYRYQDLAPQLVPLDYTTCPDVKVPYELIGSMPELKDNPFRQRIAQVFSEDGDGHMTLDNFLDMFSVMSEMAPRDLKAYYAFKIYDFNNDDYICAWDLEQTVTKLTRGGLSAEEVSLVCEKVLDEADGDHDGRLSLEDFQNMILRAPDFLSTFHIRI	binds	binds	binds
human CIB1 (FRET, CHO-K1 cells) (protein, UniProt Q99828 1-191) MGGSGSRLSKELLAEYQDLTFLTKQEILLAHRRFCELLPQEQRSVESSLRAQVPFEQILSLPELKANPFKERICRVFSTSPAKDSLSFEDFLDLLSVFSDTATPDIKSHYAFRIFDFDDDGTLNREDLSRLVNCLTGEGEDTRLSASEMKQLIDNILEESDIDRDGTINLSEFQHVISRSPDFASSFKIVL		no binding	no binding
human CIB4 (FRET, CHO-K1 cells) (protein, UniProt A0PJX0 1-185) MGQCLRYQMHWEDLEEYQALTFLTRNEILCIHDTFLKLCPPGKYYKEATLTMDQVSSLPALRVNPFRDRICRVFSHKGMFSFEDVLGMASVFSEQACPSLKIEYAFRIYDFNENGFIDEEDLQRIILRLLNSDDMSEDLLMDLTNHVLSESDLDNDNMLSFSEFEHAMAKSPDFMNSFRIHFWGC		no binding	no binding

Reference: article PMC7343241
